# Results from patent US20170306038A1, “COMPOSITIONS AND METHODS OF USE FOR AUGMENTED IMMUNE RESPONSE AND CANCER THERAPY” (priority 2014, published 2017).
# T1: hGITR (Homo sapiens, UniProt Q9Y5U5)
# T1 sequence (Q9Y5U5 26-241): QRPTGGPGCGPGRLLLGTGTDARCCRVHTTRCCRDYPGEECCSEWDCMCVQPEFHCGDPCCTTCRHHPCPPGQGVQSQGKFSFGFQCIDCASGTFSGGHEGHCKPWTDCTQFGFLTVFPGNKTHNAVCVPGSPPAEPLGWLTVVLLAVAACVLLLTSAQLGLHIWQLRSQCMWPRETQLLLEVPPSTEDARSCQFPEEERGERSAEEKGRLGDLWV
# T2: human GITR (Homo sapiens, UniProt Q9Y5U5)
# T2 construct: coated with rat, mouse, human or cyno GITR extracellular domain (ECD) at 50 ng per well
# T2 sequence (Q9Y5U5 26-162 limits assumed): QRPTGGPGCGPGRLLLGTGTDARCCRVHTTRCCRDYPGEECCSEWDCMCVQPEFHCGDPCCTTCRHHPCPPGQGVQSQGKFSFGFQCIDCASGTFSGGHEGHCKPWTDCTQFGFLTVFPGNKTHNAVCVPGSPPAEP
# Columns and labels:
# cynomolgus GITR = test: ELISA binding to GITR extracellular domain, cyno
# Procedure: (§1) Binding of the MABs to GITR from various species, various alanine mutant constructs or GITR extracellular domain—was assessed using a 384-well plate was coated with rat, mouse, human or cyno GITR extracellular domain (ECD) at 50 ng per well and incubated overnight at 4° C. The plate was blocked with a solution of 1% BSA in PBS for one hour at room temperature and then rinsed three times with PBST. The MAB was then diluted to 0.5 μg/mL or 1 μg/mL in PBS and 20 μL was added to each well. The plate was incubated for 1 hour at room temperature and then washed three times with PBST. Anti-human kappa antibody (Sigma #A7164), anti-human gamma antibody (Jackson Immunoresearch 109-036-098), goat anti-mouse antibody (Jackson ImmunoResearch 115-035-071) conjugated to HRP was diluted 1:5000 in Blocking Buffer (25 μL) and added to each well, or a hrp conjugated HIS antibody (QIAGEN 1014992) diluted 1:1000 in Blocking Buffer was added. The plate was incubated for 1 hour at room temperature, and then washed six times with PBST. 25 μL of SureBlue TMB (KPL 52-00-02) substrate was added to each well and the plate was incubated for about 10 min at room temperature. Plates were read at 650 nm in a spectrophotometer.
# hGITR [1] = target: T1, hGITR; test: NFκB-Luciferase reporter gene assay, 293 cells with human GITR; assay type: cell-based; set-up: expressed in transfected cells; host or cells: HEK-293 (293) cells; conditions: antibodies crosslinked
# Procedure: (§2) To generate the 293-hGITR-NFκB reporter gene cells line, 293 cells were stably transfected with an NFκB-Luciferase reporter gene and human GITR (or cyno GITR). Activation of the GITR signaling pathway in these cells was determined by measuring the levels of luciferase induced within the cells after a 24 hour incubation with GITR-L or agonistic antibody. To assess the effects of cross-linking Abs, they were incubated with an excess of a F(ab′)2 goat anti-human Fcγ fragment specific antibody or protein A before using in the reporter gene assay.
# (§3) Functional activity of MABs were tested in an NFkB reporter gene assay for agonist activity. MAB was diluted to 6 μg/mL in PBS and incubated for 30 minutes at room temperature in the presence/absence of a 3 fold excess of F(ab′)2 fragment goat anti-human Fcγ specific crosslinker. Alternatively, MAB was diluted to 6 μg/mL in PBS and incubated for 30 minutes at room temperature in the presence/absence of a 2 fold excess of Protein A. 10 μL of incubated MAB was then added to a 384 well white clear bottomed assay plate. A HEK-293 cell line stably transfected with hGITR and a NFκB reporter gene was diluted to 5×10^5 cells/mL and 20 μL of the cell suspension was added to each well. The plate was incubated for 24 hours in a 37° C. tissue culture incubator. 30 μL of Cell Bright Glo was added to each well and the plate was read for luminescence on the Acquest.
# cyno GITR = test: NFκB-Luciferase reporter gene assay, 293 cells with cyno GITR; assay type: cell-based, cynomolgus; conditions: 293 cells stably transfected with cyno GITR; antibodies cross-linked
# Procedure: as §2
# as §3, with “The plate was incubated for 24 hours in a 37° C. tissue culture incubator.” left out
# rodent GITR = test: ELISA binding to GITR extracellular domain, rodent; set-up: species or system rat, mouse
# Procedure: as §1
# panel of human TNFRs = test: Specificity ELISA on TNFRSF family members; assay type: binding; conditions: IgGs
# Procedure: For the specificity ELISA, a crude cell lysate was made from bacteria expressing members of the TNFRSF family. To prevent nonspecific binding to the plate 50 μL of 5% BSA was added per mL of bacterial lysate. A HisGrab Nickel 96-well plate (Pierce #15142) was coated with TNFRSF containing bacterial lysate at 100 μL of lysate/BSA per well and incubated for 1 hour at room temperature. The plate was then rinsed three times with PBST, then MAB was diluted to 0.5 μg/mL in 10% FBS in PBS and 100 μL was added to each well. The plate was incubated for 1 hour at room temperature and then rinsed three times with PBST. Anti-human kappa antibody (Sigma #A7164) conjugated to HRP was diluted 1:5000 in 1:1 PBST: 10% FBS in PBS and 100 μL added to each well. The plate was incubated for 1 hour at room temperature, and then washed three times with PBST. 100 μL of SureBlue TMB substrate was added to each well and the plate was incubated for about 10 min at room temperature before stopping the reaction with 100 μL/well of 2N H2SO4. The plate was read at 450 nm in a spectrophotometer.
# human GITR = target: T2, human GITR; test: ELISA binding to GITR extracellular domain, human
# Procedure: as §1
# cGITR = test: Biacore binding affinity to cyno GITR; set-up: species or system cynomolgus; conditions: in words
# Source text: (§4) The anti-GITR agonist antibodies of the invention bind selectively to human and cyno GITR in a number of biochemical assays, including flow cytometry, ELISA, Biacore, and Protagen™ chip assays.
# hGITR [2] = target: T1, hGITR; test: Biacore binding affinity to human GITR; conditions: in words
# Source text: as §4
binding to cynomolgus GITR in ELISA (cynomolgus GITR),binding to rodent GITR in ELISA (rodent GITR),binding to human GITR in ELISA (human GITR),binding affinities to cyno GITR (cGITR),binding affinities (KD) to human GITR (hGITR [2]),Molecule,NFκB activity / intracellular signaling (hGITR [1]),NFκB activation (cyno GITR),antigen specificity against a panel of human TNFRs (panel of human TNFRs)
able to bind,not rodent GITR,able to bind,nanomolar,subnanomolar,"MAB4: Humaneered human GITR agonist antibody, IgG1 kappa; heavy chain SEQ ID NO:73, light chain SEQ ID NO:66 (antibody) heavy: EVQLVESGGGLVQSGGSLRLSCAASGFSLSSYGVDWVRQAPGKGLEWVGVIWGGGGTYYASSLMGRFTISRDNSKNTLYLQMNSLRAEDTAVYYCAKHAYGHDGGFAMDYWGQGTLVTVSSASTKGPSVFPLAPSSKSTSGGTAALGCLVKDYFPEPVTVSWNSGALTSGVHTFPAVLQSSGLYSLSSVVTVPSSSLGTQTYICNVNHKPSNTKVDKRV[human IgG1 Fc not printed] light: EIVMTQSPATLSVSPGERATLSCRASESVSSNVAWYQQRPGQAPRLLIYGASNRATGIPARFSGSGSGTDFTLTISRLEPEDFAVYYCGQSYSYPFTFGQGTKLEIKRTVAAPSVFIFPPSDEQLKSGTASVVCLLNNFYPREAKVQWKVDNALQSGNSQESVTEQDSKDSTYSLSSTLTLSKADYEKHKVYACEVTHQGLSSPVTKSFNRGEC","induce NFκB activity when crosslinked, at levels similar to GITR ligand",promote NFκB activation,retain high specificity for GITR
able to bind,not rodent GITR,able to bind,nanomolar,subnanomolar,"MAB5: Humaneered human GITR agonist antibody, IgG1 kappa; heavy chain SEQ ID NO:75, light chain SEQ ID NO:66 (antibody) heavy: EVQLVESGGGLVQSGGSLRLSCAASGFSLSSYGVDWVRQAPGKGLEWLGVIWGGGGTYYTSSLMGRFTISRDNSKNTLYLQMNSLRAEDTAVYYCAKHAYGHDGGFAMDYWGQGTLVTVSSASTKGPSVFPLAPSSKSTSGGTAALGCLVKDYFPEPVTVSWNSGALTSGVHTFPAVLQSSGLYSLSSVVTVPSSSLGTQTYICNVNHKPSNTKVDKRV[human IgG1 Fc not printed] light: EIVMTQSPATLSVSPGERATLSCRASESVSSNVAWYQQRPGQAPRLLIYGASNRATGIPARFSGSGSGTDFTLTISRLEPEDFAVYYCGQSYSYPFTFGQGTKLEIKRTVAAPSVFIFPPSDEQLKSGTASVVCLLNNFYPREAKVQWKVDNALQSGNSQESVTEQDSKDSTYSLSSTLTLSKADYEKHKVYACEVTHQGLSSPVTKSFNRGEC","induce NFκB activity when crosslinked, at levels similar to GITR ligand",promote NFκB activation,retain high specificity for GITR
,,,,,"MAB8: MAB4 variant with glycation site KH changed to RN; heavy chain SEQ ID NO:106, light chain SEQ ID NO:66 (antibody) heavy: EVQLVESGGGLVQSGGSLRLSCAASGFSLSSYGVDWVRQAPGKGLEWVGVIWGGGGTYYASSLMGRFTISRDNSKNTLYLQMNSLRAEDTAVYYCARNAYGHDGGFAMDYWGQGTLVTVSSASTKGPSVFPLAPSSKSTSGGTAALGCLVKDYFPEPVTVSWNSGALTSGVHTFPAVLQSSGLYSLSSVVTVPSSSLGTQTYICNVNHKPSNTKVDKRV[human IgG1 Fc not printed] light: EIVMTQSPATLSVSPGERATLSCRASESVSSNVAWYQQRPGQAPRLLIYGASNRATGIPARFSGSGSGTDFTLTISRLEPEDFAVYYCGQSYSYPFTFGQGTKLEIKRTVAAPSVFIFPPSDEQLKSGTASVVCLLNNFYPREAKVQWKVDNALQSGNSQESVTEQDSKDSTYSLSSTLTLSKADYEKHKVYACEVTHQGLSSPVTKSFNRGEC","induce NFκB activity when crosslinked, at levels similar to GITR ligand",,
